# Whole data set: some 33,000 sequences, median “E-score (-0.5 to 0.5)” near -0.056, cut for the highest 2% near 0.38. Some of the results follow.
# Target: Stb4 (UniProt P50104)
# Assay: PBM E-score (8-mer binding enrichment) (E-score (-0.5 to 0.5)); higher = stronger / more preferred TF binding; most listed sequences are background and not binding sites
# Settings: protein concentration: 200 nM; construct: GST-DNA-binding domain
# Summary of the method: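 Universal all-10-mer Agilent arrays, fresh or stripped once, were converted to double-stranded form by primer extension. GST-tagged yeast transcription factors from PURExpress in vitro transcription/translation, full-length or DNA-binding domain only, were applied at about 100-200 nM and detected with fluorescent anti-GST. After masliner normalisation, the Universal PBM Analysis Suite scored each ungapped eight-base word together with its reverse complement by E-score.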
row,Sequence,PBM E-score
1,CACTCTGG,-0.221
2,AGCCAATA,-0.174
3,GAGAAGGC,-0.246
4,AAATAGTC,-0.0244
5,GGAATCTA,0.181
6,CCATGGGG,-0.123
7,CACTCCCC,0.16
8,CGAGGTGA,0.104
9,CTCCCTGA,-0.245
10,AAGCTAAC,-0.157
11,ATATTGAG,-0.115
12,AATTGCCT,-0.0946
13,CCGTCTTC,0.222
14,AGACCCAT,-0.235
15,ACGGAGAA,0.0192
16,CACCAAAG,-0.0243
17,CTACCTGA,-0.083
18,ATGAACCC,0.0956
19,CGGGAGCA,0.316
20,CACTTTGC,-0.0625
21,GGTGCAGA,-0.211
22,GCAGCAAC,-0.0766
23,TATGTCCA,-0.0533
24,AGCGCTGG,-0.166
25,AACTTCCA,0.132

row,Sequence,PBM E-score
1,AATCCATT,-0.067
2,AGGCCGAT,0.113
3,GATGCAGC,0.0698
4,CAATTTCC,0.259
5,ATACATCC,0.239
6,CAACTAGG,-0.0487
7,AGCAACAG,0.0175
8,CGCGTCTA,-0.145
9,GCTCCGGA,0.346
10,ACGGTCTA,-0.0985
11,TGCTTACA,-0.285
12,ACGTATTG,-0.211
13,GCACGGAC,0.13
14,ATACGCCC,-0.0994
15,GAGGGGGC,-0.125
16,CATTACTA,-0.106
17,AGGTTCTA,-0.0621
18,CAAGCAGC,-0.156
19,ATCCACGA,-0.273
20,ATAAGAAG,0.106
21,ACAAGAGT,-0.0988
22,ATGTTCAG,-0.264
23,CACTGTAA,-0.144
24,CTGACACA,-0.165
25,CAGTTCGC,-0.194

row,Sequence,PBM E-score
1,GAAATCAA,-0.00426
2,AATAAAGC,-0.0678
3,CATATTGG,-0.195
4,CGATAGAA,-0.00777
5,CTTGGCGC,-0.123
6,ACCGGAGG,0.228
7,AGACCCCA,-0.056
8,ACGGATCG,0.315
9,TGAGCCCA,-0.221
10,ATGAGACG,-0.0812
11,ACAGAGGA,-0.262
12,AGGATCGG,0.237
13,AGACCCGC,0.174
14,TAAATCAA,-0.0636
15,GATCAGCA,-0.163
16,ATTCGTTC,0.0399
17,GAAAACTC,0.0464
18,ATCTGAGC,0.0161
19,AGAAGGAC,-0.236
20,CTGAGATC,-0.0537
21,CAGTCTTA,-0.142
22,GGCCCGCC,0.145
23,GTTTAGAA,-0.0425
24,GTTCATTA,0.0516
25,AACTAAGC,-0.0964

row,Sequence,PBM E-score
1,ACCAGGTG,-0.0942
2,GAGACCCA,0.00023
3,GAAAATAA,-0.0829
4,CATTGCTC,0.115
5,TACCTCTA,-0.18
6,CTCCGAGA,0.409
7,CAGGGAGA,-0.266
8,ACGACGGA,0.22
9,AAGTTGGG,-0.258
10,AACTCTGC,-0.141
11,GGAAACTA,0.191
12,ATTTCGCG,0.0954
13,ATTTCAAC,-0.034
14,CGAGGCAG,0.174
15,TCATGCGA,-0.129
16,CGTGGTCC,-0.0254
17,CCTATGAC,-0.189
18,GGAGTTAA,0.107
19,ATCAGTGA,-0.19
20,AAAATGCT,-0.0135
21,CGATGTCC,0.178
22,CCACAGGG,-0.23
23,CTGGCGAA,-0.256
24,AAGTCGAG,-0.366
25,AGAAGGTA,-0.141

row,Sequence,PBM E-score
1,AGTTGAGC,-0.102
2,GACTCCCC,0.00038
3,GCGGCGTA,-0.0358
4,AACCCCAC,-0.0399
5,AACCCCAT,0.0926
6,CAAGCACG,-0.108
7,AACCTTGT,-0.237
8,CAGGGGTA,-0.143
9,CGCTAGCG,0.0809
10,ACCGTCAT,-0.0409
11,ACCACTAG,-0.266
12,CCTCGACG,-0.0338
13,CGGCCCAG,0.18
14,TCTTCCCA,-0.148
15,GCGACAGC,0.0009
16,AAGATGCT,0.0731
17,AAGAATGA,-0.171
18,CCCGTCCG,0.177
19,ACTCCAGC,-0.253
20,CCAATCCA,-0.0425
21,ATTAATTA,-0.198
22,AGGAGTGA,-0.213
23,AAACTACC,0.0588
24,CGTTTCGA,-0.229
25,ACGTGGCC,-0.279

row,Sequence,PBM E-score
1,CAACCCGA,0.33
2,ACATGGCA,-0.17
3,ACATTGTG,-0.137
4,AAACACGG,0.199
5,ACGCGAAG,-0.0329
6,AGAGGGGG,-0.275
7,AGAATTTG,-0.096
8,GTGTCAAC,-0.146
9,AAAGCTGG,-0.129
10,GTAGGAAA,0.00617
11,ATATATAC,0.0281
12,AGCTCCCG,0.27
13,CATTCAAA,0.048
14,GCTCCGTA,0.168
15,ATGCAACA,-0.372
16,CACAGTCG,-0.128
17,TATATCCA,0.0679
18,AACCAGGG,-0.267
19,AATTGTCT,-0.0626
20,AGGGTTGG,-0.151
21,CAATTTTA,-0.0862
22,TACCGATA,0.285
23,AACCCAGC,-0.0399
24,GCGGACAC,0.0472
25,GCCTATAA,-0.146

row,Sequence,PBM E-score
1,GCCTCAGA,-0.0503
2,CGAACTCC,0.157
3,CAACCCCG,0.0831
4,AACAATAC,-0.134
5,ATTACAAA,0.0185
6,TCACCACA,-0.122
7,CAGGTATC,-0.0803
8,CATTTTTC,0.0291
9,CTTCGCAC,-0.165
10,TGGAACAA,-0.2
11,AATGCGCA,0.0503
12,AGTTACGG,0.0644
13,GTCTCATA,-0.0549
14,CAGACAGC,-0.0579
15,GTGCGTAA,-0.201
16,ACAAGAGC,-0.159
17,ATGTATTG,-0.0359
18,AATTCCTG,-0.0872
19,AAATCGAG,-0.0486
20,ACCAGGGG,-0.272
21,GGTTTGTA,0.0503
22,ACTAATAC,0.0783
